From the RNAGym collection of RNA variant scans (doi:10.7554/elife.90254) come the findings set out here.

Sequences and labels used below:
B1: LINE1-mini (parent)
chain: GGCAGAGCUCAACACAGCGUGGCAAAGUGGCUGUGGCUAGACUGCC

Read counts are not given, so values of variants with three or more changes are uncertain.

In the series the parent is B1. The experiment in a line: self-cleavage, relative activity (ratio to wild type); higher = more cleavage; in vitro, sequencing; the parent is a self-cleaving ribozyme.
For the variant U9A C10G U28A G44C, the self-cleavage stood at 0.03.
In the case of U9A C23A A41U, the self-cleavage amounted to 0.43.
Regarding U9A G21U A24C G44C, the self-cleavage was determined as 0.12.
Regarding U9A C10A G22A, the self-cleavage was 0.
Take U9A G29A G33A: the self-cleavage turned out to be 0.13.
The result for U9A C15G A16U U28A C37G reads 0.01; that for U9A C37G C46G, 0.06.
Consider U9A C13U C46A, for which the self-cleavage amounted to 0.24.
Turning to U9A C15A G36A, the self-cleavage was found to be 0.08.
As for U9A C10G G21U U28G, the self-cleavage was 0.02.
The same measure for U9A C10G G21A G40A: 0.01; for U9A G30A U34C A39U G44C C45A: 0.03.
Consider U9A C10A G17U C31A G33A, for which the self-cleavage amounted to 0.04.
Take U9A C42U C45U: the self-cleavage was determined as 0.22.
Take U9A U20C G36C: the self-cleavage was determined as 0.03.
As for U9A G17A C18A C31A C45A, the self-cleavage came out at 0.06.
The same measure for U9A G27C G33A: 0.33; for U9A G40U G44C: 0.05; for U9A C10U G44A: 0.04.
In the case of U9A G21C U32C G33A G36C C42A, the self-cleavage was found to be 0.03.
For U9A C42G C45G, the self-cleavage is 0.13.
U9A G22U A26C A41G: the self-cleavage came to 0.1.
Turning to U9A C37A C45A, the self-cleavage came to 0.17.
Take U9A C37A C45U: the self-cleavage was 0.16.
Consider U9A G21U C42U, for which the self-cleavage amounted to 0.03.
The result for U9A G22U G29A G36A reads 1.53; that for U9A C10G C15G G19U U38A, 0.02; that for U9A C13A G22A G35A C46U, 0.08.
The same measure for U9A C23U C45U: 0.1.
With U9A G19A G29C U32G C46A, the self-cleavage was found to be 0.09.
The same measure for U9A G21C G29U C42G: 0.03; for U9A U20C C31G C45G C46U: 0.07.
Turning to U9A C15A G40A C46U, the self-cleavage worked out at 0.08.
Consider U9A C10G C13G C18G G19U, for which the self-cleavage worked out at 0.01.
Turning to U9A G19U G35A C45U, the self-cleavage is 0.04.
The same measure for U9A C13A G17U A24G A26U C37G A41G C42G: 0.32.
Turning to U9A C15A U38A A39G A41U, the self-cleavage came to 0.3.
The result for U9A G17A G35C G40A reads 0.03.
Consider U9A C18U U32C, for which the self-cleavage came to 0.05.
Regarding U9A C18A C23A G27U, the self-cleavage came to 0.15.
The result for U9A C18U G22U U34G reads 0.01; that for U9A C10U C18A U32G G36A U38A, 0.08; that for U9A C18U G27C, 0.12.
The same measure for U9A C10U C23G U32A U38C: 0.13.
U9A C15G G29U C37U U38G A39G U43A: the self-cleavage came out at 0.
Turning to U9A C23G G35C G44U, the self-cleavage turned out to be 0.01.
Take U9A C31A A41G: the self-cleavage is 0.07.
Take U9A C13A C37A A41U: the self-cleavage is 0.63.
The same measure for U9A C13G C18U: 0.02; for U9A C18G C31G U34A: 0.07; for U9A C10A G33A: 0.06.
The same measure for U9A G17U C18U G44U: 0.02.
The same measure for U9A G19A G40A: 0.2.
In the case of U9A C37U C42A, the self-cleavage turned out to be 0.18.
In the case of U9A C15A G30A G36U A41C, the self-cleavage is 0.16.
As for U9A G17A U34C C46G, the self-cleavage worked out at 0.09.
On to U9A C13U U38G, for which the self-cleavage came out at 0.08.
The result for U9A G36C C46A reads 0.1; that for U9A C10U U38C C42G, 0.04.
Regarding U9A C13G G17U C31G G36A, the self-cleavage came out at 0.13.
For U9A C15A C46A, the self-cleavage came out at 0.05.
Consider U9A G30C C31A, for which the self-cleavage was 0.09.
The same measure for U9A G19U G40C: 0.04; for U9A G19A G33U U43A: 0.11; for U9A G22U C23U G33U: 0.1.
For the variant U9A C15A U34G A41U C46G, the self-cleavage worked out at 0.1.
For U9A C15G G33U, the self-cleavage turned out to be 0.14.
The same measure for U9A C15A G17A C18U G35C: 0.04.
Regarding U9A G21U U32G C45A, the self-cleavage stood at 0.04.
As to U9A C15U G27C G36A U43A, the self-cleavage was 0.07.
Turning to U9A G29U U38A G40C, the self-cleavage turned out to be 0.03.
In the case of U9A G22A G30U U32A C37A A41G, the self-cleavage was found to be 0.15.
In the case of U9A C10A U28C U32G, the self-cleavage was determined as 0.01.
As for U9A G19U A25C, the self-cleavage amounted to 0.08.
Regarding U9A G19A U38G C42A, the self-cleavage was determined as 0.05.
The result for U9A G30A A39C C46A reads 0.04; that for U9A G19A G21A G22C, 0.05.
Regarding U9A G19A G33A U43A, the self-cleavage is 0.18.
With U9A G33U C45G, the self-cleavage came to 0.04.
The same measure for U9A G35U C37A G40U G44U C46U: 0; for U9A C10U A14G G19U U28A: 0.03; for U9A C23U G35U: 0.07.
For the variant U9A G35U G40C, the self-cleavage came to 0.01.
Take U9A C15G G19U C31A G35C: the self-cleavage is 0.11.
On to U9A C10G A16U, for which the self-cleavage worked out at 0.01.
As to U9A G36U G40A, the self-cleavage worked out at 0.03.
The result for U9A C23U A26C G29C C46A reads 0.14.
The same measure for U9A G19C U38G: 0.01; for U9A G21U A26C G27C U38A: 0.25; for U9A G27U G29U A39C: 0.06.
U9A U20A C31A: the self-cleavage stood at 0.05.
For U9A U20C A39G, the self-cleavage came out at 0.
Take U9A C31U U43C: the self-cleavage came to 0.04.
U9A G19A G30U: the self-cleavage turned out to be 1.12.
Regarding U9A G22A U28G, the self-cleavage came to 0.01.
On to U9A C13U U34A C46U, for which the self-cleavage is 0.06.
For the variant U9A G36U C37G, the self-cleavage came out at 0.
The same measure for U9A G22U U38A C45G: 0.16.
The result for U9A C10G G17A reads 0.01.
For U9A G27C A39U C46G, the self-cleavage came to 0.08.
U9A C10A G22A C37A: the self-cleavage was found to be 0.03.
The result for U9A C31U A39G reads 0.02.
The same measure for U9A G22A G35U: 0.07.
For U9A C15U G19U U28A C46A, the self-cleavage was found to be 0.04.
U9A C10U A12C C23A: the self-cleavage is 0.01.
The same measure for U9A C10G C13G A41G: 0.01; for U9A C15A A39U A41U: 0.61; for U9A G19A C31U U32G G40U: 0.03.
As for U9A C13U U20G, the self-cleavage turned out to be 0.24.
For U9A G21A C23A U32G G36U C45A, the self-cleavage was determined as 0.26.
The result for U9A C15A G19A C37A reads 0.05.
Take U9A C23U G27U G30U G36U C42A U43C: the self-cleavage was determined as 0.03.
Consider U9A G22A A26U G29C, for which the self-cleavage was 0.05.
Take U9A C23G U32C: the self-cleavage is 0.12.
Take U9A C23G U32A: the self-cleavage was 0.09.
In the case of U9A G30U U38G C46A, the self-cleavage was 0.09.
Regarding U9A G19A A39G G40A, the self-cleavage was 0.06.
Turning to U9A C13G U20A, the self-cleavage is 0.08.
As for U9A C13U C18A C31G C37U G40U, the self-cleavage is 0.01.
The result for U9A C15A G19A reads 0.11; that for U9A G17A A41C, 0.02.
The same measure for U9A G19C C42G U43G: 0; for U9A C18U G36A A39U: 1.02.
With U9A G33U C42U, the self-cleavage was 0.03.
As for U9A C15U G35U, the self-cleavage was found to be 0.3.
Consider U9A G17C G27U U28C C31A G33U U38G C45U, for which the self-cleavage is 0.17.
Take U9A G17U G22A G40A C46U: the self-cleavage turned out to be 0.01.
The result for U9A C13U C23U U28A reads 0.12; that for U9A G30A C31A G35A C37A, 0.11.
In the case of U9A C10U A11G A25U A26G, the self-cleavage was 0.02.
The same measure for U9A C10G A25C U34G A39U: 0.01; for U9A C23U G30A: 0.04.
U9A C18A G35A G36C C37A: the self-cleavage stood at 0.04.
As to U9A C13G G19A G36C, the self-cleavage turned out to be 0.03.
Turning to U9A C18A C37U U38C C46A, the self-cleavage is 0.04.
Consider U9A C18U G22C, for which the self-cleavage was found to be 0.04.
Take U9A C23A G30U: the self-cleavage was determined as 0.05.
Take U9A G30C G33C: the self-cleavage is 0.02.
Take U9A G17C C31A C45G: the self-cleavage was 0.18.
On to U9A C18G U38G U43A C46U, for which the self-cleavage stood at 0.06.
Turning to U9A C10G C15U C23U, the self-cleavage was 0.01.
As for U9A C18G G35A, the self-cleavage was determined as 0.13.
As for U9A C15U G22U C23U G35C C45A, the self-cleavage was determined as 0.1.
For the variant U9A C10G U20G, the self-cleavage came to 0.04.
For U9A C37G G40U G44U, the self-cleavage worked out at 0.12.
As to U9A G17C G22A, the self-cleavage is 0.03.
In the case of U9A G21A U32C, the self-cleavage is 0.12.
On to U9A G22U C23G C31U U38A, for which the self-cleavage was 0.02.
Consider U9A C10G A41G, for which the self-cleavage was 0.01.
Turning to U9A G29C G36A, the self-cleavage was determined as 0.03.
Consider U9A C10G G29A C31U, for which the self-cleavage is 0.03.
The result for U9A G27U C42U reads 0.1; that for U9A G21C G29C C42G, 0.03; that for U9A C13A A25U G44C, 0.05.
Consider U9A G21A A39G, for which the self-cleavage was 0.21.
The same measure for U9A G40A C45U: 0.08.
For the variant U9A C18A G22A G40U, the self-cleavage worked out at 0.01.
For the variant U9A C13G G22C G27U U38A A39U, the self-cleavage turned out to be 0.05.
The result for U9A C23U U28G reads 0.04; that for U9A U20A G27C, 0.07.
With U9A G27U G35U, the self-cleavage turned out to be 0.11.
Turning to U9A G27A U28A U34C U43C, the self-cleavage amounted to 0.06.
As for U9A G27U G36U, the self-cleavage came to 0.19.
As to U9A C10G G33A U38C A41G, the self-cleavage stood at 0.01.
Consider U9A G30U A39G A41U C42A C46A, for which the self-cleavage came out at 0.09.
For U9A G17A G35A, the self-cleavage was found to be 0.2.
On to U9A G30U C46U, for which the self-cleavage amounted to 0.02.
